The test system of one assay is MDA-MB-453 cells. In words: Internalization of antibody-drug conjugates with pHrodo in MDA-MB-453 cells. It is filed as cell-based. To be noted: 10 nM. The protocol:
The up-taken of the antibody-drug conjugate of the present application against the HER3 target on MDA-MB-453 cells expressing HER3 was detected. The cell, the antibody-drug conjugate (ADC) with a fixed concentration, and an internalization indicating reagent pHrodo were co-incubated, and the endocytosis capacity of the antibody-drug conjugate was evaluated by observing the number of fluorescent signal bright dots generated by pHrodo which entered the cell along with the antibody-drug conjugate in the cell at different time points.
• 1. Cell culture: MDA-MB-453 cells were cultured using a 10% FBS Leibovitz's L-15 medium. • 2. Cell preparation: MDA-MB-453 cells in logarithmic phase were taken, washed with PBS once, and digested with 2-3 mL of Versene for 2-3 min. After the cells were digested completely, 10-15 mL of cell culture was added to elute the digested cells. The eluate was centrifuged at 1000 rpm for 5 min, and the supernatant was discarded. The resulting cells were resuspended in cell culture to give a single cell suspension, which was adjusted to a viable cell density of […] cells/mL. • 3. Cell plating: the cell suspension was added to a 96-well cell culture plate at 50 μL/well. The culture plate was incubated in an incubator for 18 h (37° C., 5% CO2). • 4. Sample adding: the test antibody-drug conjugate was co-incubated with Fab-pHrodo to form a complex, adjusted to a concentration of 10 nM, and added to the cells at 50 μL/well. • 5. Culturing of cells: the culture plate was incubated in an incubator for 2, 4, 6, 24, or 48 h (37° C., 5% CO2). • 6. Plate reading: when the corresponding time point was reached, the 96-well cell culture plate was taken out, Hoechst33342 was added to perform cell nucleus staining, the plate was placed in operatta CLS for photographing, and the number of cells and the number of fluorescent bright dots in each cell were read. The average number of cell fluorescent dots was calculated using Harmony® imaging and analysis software.

For another assay, the system named is MDA-MB-231 cells. In words: In vitro proliferation inhibition (CTG), MDA-MB-231. Type of assay: cell-based. To be noted: 6 days of culture, not expressing Her3. The protocol: To test the proliferation inhibitory activity of the antibody-drug conjugate of the present application targeting HER3 to HCC1569 and MDA-MB-453 cells with high expression of Her3 and MDA-MB-231 tumor cells not expressing Her3 in vitro. The cells were treated with the antibody-drug conjugates at different concentrations in vitro, and after 6 days of culture, the proliferation of cells was detected using the CTG reagent, and the in vitro activity of the compounds was evaluated according to the 50% growth inhibitory concentration (IC50) value.
• 1. Cell culture: HCC1569, MDA-MB-453, or MDA-MB-231 cells were cultured in RPMI-1640 medium containing 10% FBS. • 2. Cell Preparation: HCC1569, MDA-MB-453, or MDA-MB-231 cells in logarithmic phase were taken, washed with PBS once, and digested with 2-3 mL of trypsin for 2-3 min. After the cells were digested completely, 10-15 mL of cell culture was added to elute the digested cells. […] The cells were stained with trypan blue and viable cells were counted. • 3. […] Sample adding: the prepared samples to be detected at different concentrations were added to the culture plate, and two duplicate wells were set for each sample. […] Plate reading: the 96-well cell culture plate was taken out, placed in a 2104 EnVision microplate reader, and measured for the chemiluminescence using the microplate reader. […]

Data on one molecule can be found in patent US20250295802A1, “HER3 ANTIBODY-DRUG CONJUGATE AND USE THEREOF” (DUALITY BIOLOGICS (SUZHOU) CO., LTD., priority 2022, published 2025).

B1: ADC-1-X2: anti-Her3 antibody hu3F8-2 conjugated with linker-payload X2, DAR 7.53 (conjugate)
heavy: QVQLQESGPGLVKPSETLSLTCTVSGYSITSAYYWNWIRQPFGKGLEWMGYISYDGRNNFNPSLKNRVTISRDTSKNQFSLKLSSVTAADTAVYYCARDGDYDYFDYWGQGTTVTVSS[human IgG1 constant region left out]
light: DIQMTQSPSSLSASVGDRVTITCRASQDISNYLNWYQQKPGKAPKLLIYYTSILHSGVPSRFSGSGSGTDYTFTISSLQPEDIATYFCQQGDTLPPTFGGGTKLEIKRTVAAPSVFIFPPSDEQLKSGTASVVCLLNNFYPREAKVQWKVDNALQSGNSQESVTEQDSKDSTYSLSSTLTLSKADYEKHKVYACEVTHQGLSSPVTKSFNRGEC
On to B1, for which the “Average number of fluorescence dots in cells” value was determined as 2.1 with MDA-MB-453 cells (assay time 2 h); 2.3 with MDA-MB-453 cells (assay time 4 h); 2.5 with MDA-MB-453 cells (assay time 6 h); 3.4 with MDA-MB-453 cells (assay time 24 h); 3.7 in the assay with MDA-MB-453 cells (assay time 48 h). In the assay on MDA-MB-231 cells, the IC50 (usually the concentration needed to halve the response being measured) is over 100 nM.
